25 compounds from patent US8592383B2, “Cycloalkyl-fused tetrahydroquinolines as CRTH2 receptor modulators” (Merck Sharp & Dohme Corp., priority 2011, dated 2013) can be followed below.

The assay addresses T1, hCRTH2 (Homo sapiens, UniProt Q9Y5Y4).
T1 sequence (Q9Y5Y4 1-395): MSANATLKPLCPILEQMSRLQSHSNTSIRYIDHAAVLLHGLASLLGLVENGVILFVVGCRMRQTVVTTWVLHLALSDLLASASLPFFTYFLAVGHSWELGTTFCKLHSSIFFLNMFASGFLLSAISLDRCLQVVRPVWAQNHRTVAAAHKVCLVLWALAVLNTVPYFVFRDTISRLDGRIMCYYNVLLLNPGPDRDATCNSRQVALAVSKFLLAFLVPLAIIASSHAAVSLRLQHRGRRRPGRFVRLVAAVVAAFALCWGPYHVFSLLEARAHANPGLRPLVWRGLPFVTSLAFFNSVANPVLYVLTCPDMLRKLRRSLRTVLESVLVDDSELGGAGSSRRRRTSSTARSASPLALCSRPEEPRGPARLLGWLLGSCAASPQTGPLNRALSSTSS
The assay can be described thus: biochemical. Particulars: Ki (nM), Table A; Radioligand Binding Assay A, [3H]PGD2, HEK-hCRTH2 membranes.
Turning to `O=C(O)CCC(=O)N(C1CC1)C1c2ccccc2N(C(=O)c2ccc(-c3ccccc3)cc2)C2CCCC21` (single isomer, unassigned) [18L, 4-[[cis, cis-4-([1,1′-biphenyl]-4-ylcarbonyl)-2,3,3a,4,9,9a-hexahydro-1H-cyclopenta[b]quinolin-9-yl]cyclopropylamino]-4-oxobutanoic acid], the Ki (commonly a measure of affinity in units of concentration, obtained from inhibition or displacement) was in the range of 1 to 5 nM.

Take `O=C(O)CCC(=O)N(C1CC1)C1c2ccccc2N(C(=O)c2cccc(Oc3ccccc3)c2)C2CCCC21` (single isomer, unassigned) [18M, 4-[cyclopropyl[cis, cis-2,3,3a,4,9,9a-hexahydro-4-(3-phenoxybenzoyl)-1H-cyclopenta[b]quinolin-9-yl]amino]-4-oxobutanoic acid]: the Ki lay in the range of 1 to 5 nM.

In the case of `O=C(O)CCC(=O)N(C1CC1)C1c2ccccc2N(C(=O)c2cccc(-c3cncs3)c2)C2CCCC21` (single isomer, unassigned) [18S, 4-[cyclopropyl[cis, cis-2,3,3a,4,9,9a-hexahydro-4-[3-(5-thiazolyl)benzoyl]-1H-cyclopenta[b]quinolin-9-yl]amino]-4-oxobutanoic acid], the Ki was in the range of 5.1 to 20 nM.

For the compound `O=C(O)CCC(=O)N(C1CC1)C1c2ccccc2N(C(=O)c2cccc(-c3ccnnc3)c2)C2CCCC21` (single isomer, unassigned) [18T, 4-[cyclopropyl[cis, cis-2,3,3a,4,9,9a-hexahydro-4-[3-(4-pyridazinyl)benzoyl]-1H-cyclopenta[b]quinolin-9-yl]amino]-4-oxobutanoic acid], the inhibitory constant (Ki) was in the range of 20.1 to 200 nM.

In the case of `CCN(C(=O)CCC(=O)O)C1c2ccccc2N(C(=O)OCc2cc(F)cc(F)c2)C2CCCC12` (single isomer, unassigned) [22A, 4-[(3,5-difluorophenyl)methyl] cis, cis-[(3-carboxy-1-oxopropyl)ethylamino]-1,2,3,3a,9,9a-hexahydro-4H-cyclopenta[b]quinoline-4-carboxylate], the Ki was 201 to 7500 nM.

Regarding `O=C(O)COC(=O)N(C1CC1)C1c2ccccc2N(C(=O)OCc2ccc(F)cc2F)C2CCCC21` (single isomer, unassigned) [22D, 4-[(2,4-difluorophenyl)methyl] cis, cis-[[(carboxymethoxy)carbonyl]cyclopropylamino]-1,2,3,3a,9,9a-hexahydro-4H-cyclopenta[b]quinoline-4-carboxylate], the Ki fell in the range of 1 to 5 nM.

`O=C(O)COC(=O)N(C1CC1)C1c2ccccc2N(C(=O)OCc2cccs2)C2CCCC21` (single isomer, unassigned) [22E, 4-(2-thienylmethyl) cis, cis-[[(carboxymethoxy)carbonyl]cyclopropylamino]-1,2,3,3a,9,9a-hexahydro-4H-cyclopenta[b]quinoline-4-carboxylate] yielded a Ki of 5.1 to 20 nM.

For `O=C(O)CCC(=O)N(C1CC1)C1c2cc(F)c(Cl)cc2N(C(=O)OCc2ccc(F)cc2F)C2CCCC21` (single isomer, unassigned) [22F, 4-[(2,4-difluorophenyl)methyl] cis, cis-[(3-carboxy-1-oxopropyl)cyclopropylamino]-6-chloro-7-fluoro-1,2,3,3a,9,9a-hexahydro-4H-cyclopenta[b]quinoline-4-carboxylate], the inhibitory constant (Ki) lay in the range of 5.1 to 20 nM.

For the compound `O=C(O)CCC(=O)N(C1CC1)C1c2cc(F)c(Cl)cc2N(C(=O)OCc2cccc(OC(F)(F)F)c2)C2CCCC21` (single isomer, unassigned) [22G, 4-[[3-(trifluoromethoxy)phenyl]methyl] cis, cis-[(3-carboxy-1-oxopropyl)cyclopropylamino]-6-chloro-7-fluoro-1,2,3,3a,9,9a-hexahydro-4H-cyclopenta[b]quinoline-4-carboxylate], the Ki is 5.1 to 20 nM.

`O=C(O)CCC(=O)N(C1CC1)C1c2cc(F)c(Cl)cc2N(C(=O)OCc2ccccn2)C2CCCC21` (single isomer, unassigned) [22H, 4-(2-pyridinylmethyl) cis, cis-[(3-carboxy-1-oxopropyl)cyclopropylamino]-6-chloro-7-fluoro-1,2,3,3a,9,9a-hexahydro-4H-cyclopenta[b]quinoline-4-carboxylate]: the Ki lay within 5.1 to 20 nM.

`O=C(O)CCC(=O)N(C1CC1)C1c2ccccc2N(C(=O)OCc2ccc(OC(F)(F)F)cc2)C2CCCC21` (single isomer, unassigned) [22J, 4-[[4-(trifluoromethoxy)phenyl]methyl] cis, cis-[(3-carboxy-1-oxopropyl)cyclopropylamino]-1,2,3,3a,9,9a-hexahydro-4H-cyclopenta[b]quinoline-4-carboxylate] had a Ki of 201 to 7500 nM.

Compound `O=C(O)CCC(=O)N(C1CC1)C1c2ccccc2N(C(=O)OCc2ccc(OC(F)(F)F)cc2)C2CCCC21` (single isomer, unassigned) [22K, 4-[[4-(trifluoromethoxy)phenyl]methyl] cis, cis-[(3-carboxy-1-oxopropyl)cyclopropylamino]-1,2,3,3a,9,9a-hexahydro-4H-cyclopenta[b]quinoline-4-carboxylate] came in with an inhibition constant Ki of 5.1 to 20 nM.

With `O=C(O)CCC(=O)N(C1CC1)C1c2ccccc2N(C(=O)OC2Cc3ccccc3C2)C2CCCC21` (single isomer, unassigned) [22L, 4-(2,3-dihydro-1H-inden-2-yl) cis, cis-[(3-carboxy-1-oxopropyl)cyclopropylamino]-1,2,3,3a,9,9a-hexahydro-4H-cyclopenta[b]quinoline-4-carboxylate], the Ki lay in the range of 5.1 to 20 nM.

With `O=C(O)CCC(=O)N(C1CC1)C1c2ccccc2N(C(=O)OCc2ccc(F)c(F)c2)C2CCCC21` (single isomer, unassigned) [22M, 4-[(3,4-difluorophenyl)methyl] cis, cis-[(3-earboxy-1-oxopropyl)cyclopropylamino]-1,2,3,3a,9,9a-hexahydro-4H-cyclopenta[b]quinoline-4-carboxylate], the Ki lay within 5.1 to 20 nM.

Turning to `O=C(O)CCC(=O)N(C1CC1)C1c2ccccc2N(C(=O)OCc2cc(F)cc(F)c2)C2CCCC21` (single isomer, unassigned) [22N, 4-[(3,5-difluorophenyl)methyl] cis, cis-[(3-carboxy-1-oxopropyl)cyclopropylamino]-1,2,3,3a,9,9a-hexahydro-4H-cyclopenta[b]quinoline-4-carboxylate], the Ki lay within 20.1 to 200 nM.

The compound `O=C(O)CCC(=O)N(C1CC1)C1c2ccccc2N(C(=O)OCc2ccc(C(F)(F)F)cc2)C2CCCC21` (single isomer, unassigned) [22O, 4-[[4-(trifluoromethyl)phenyl]methyl] cis, cis-[(3-carboxy-1-oxopropyl)cyclopropylamino]-1,2,3,3a,9,9a-hexahydro-4H-cyclopenta[b]quinoline-4-carboxylate] showed a Ki of 20.1 to 200 nM.

As to `N#Cc1ccc(COC(=O)N2c3ccccc3C(N(C(=O)CCC(=O)O)C3CC3)C3CCCC32)cc1` (single isomer, unassigned) [22P, 4-[(4-cyanophenyl)methyl] cis, cis-[(3-carboxy-1-oxopropyl)cyclopropylamino]-1,2,3,3a,9,9a-hexahydro-4H-cyclopenta[b]quinoline-4-carboxylate], the Ki was in the range of 20.1 to 200 nM.

In turn, `O=C(O)CCC(=O)N(C1CC1)C1c2ccc(Cl)cc2N(C(=O)OCc2ccc(F)cc2)C2CCCC21` (single isomer, unassigned) [22T, 4-[(4-fluorophenyl)methyl] cis, cis-[(3-carboxy-1-oxopropyl)cyclopropylamino]-6-chloro-1,2,3,3a,9,9a-hexahydro-4H-cyclopenta[b]quinoline-4-carboxylate] had an inhibitory constant (Ki) of 5.1 to 20 nM.

Take `C[C@H](OC(=O)N1c2cc(Cl)ccc2C(N(C(=O)CCC(=O)O)C2CC2)C2CCCC21)c1ccc(F)cc1` (single isomer, unassigned) [22U]: the Ki was in the range of 1 to 5 nM.

As for `O=C(O)CCC(=O)N(C1CC1)C1c2ccc(Cl)cc2N(C(=O)O[C@H]2CCc3ccccc32)C2CCCC21` (single isomer, unassigned) [22V], the Ki is 1 to 5 nM.

`O=C(O)CCC(=O)N(C1CC1)C1c2ccc(Cl)cc2N(C(=O)O[C@@H]2CCc3ccccc32)C2CCCC21` (single isomer, unassigned) [22W] returned an inhibition constant (Ki) of 5.1 to 20 nM.

As to `O=C(O)CCC(=O)N(C1CC1)[C@@H]1c2ccc(Cl)cc2N(C(=O)OC2Cc3ccccc3C2)[C@@H]2CCC[C@@H]21` (single isomer, unassigned) [22X, 4-(2,3-dihydro-1H-inden-2-yl) cis, cis-[(3-carboxy-1-oxopropyl)cyclopropylamino]-6-chloro-1,2,3,3a,9,9a-hexahydro-4H-cyclopenta[b]quinoline-4-carboxylate], the Ki lay in the range of 5.1 to 20 nM.

Turning to `O=C(O)CCC(=O)N(C1CC1)[C@@H]1c2ccc(Cl)cc2N(C(=O)OCc2ccc(F)cc2F)[C@@H]2CCC[C@@H]21` (single isomer, unassigned) [22Y, 4-[(2,4-difluorophenyl)methyl] cis, cis-[(3-carboxy-1-oxopropyl)cyclopropylamino]-6-chloro-1,2,3,3a,9,9a-hexahydro-4H-cyclopenta[b]quinoline-4-carboxylate], the Ki lay in the range of 5.1 to 20 nM.

`O=C(O)CCC(=O)N(C1CC1)C1c2cc(F)ccc2N(C(=O)OCc2ccccc2)C2CCC21` (single isomer, unassigned) [27A, 3-(phenylmethyl) cis, cis-[(3-carboxy-1-oxopropyl)cyclopropylamino]-6-fluoro-2,2a,8,8a-tetrahydrocyclobuta[b]quinoline-3(1H)-carboxylate] yielded a Ki of 5.1 to 20 nM.

The compound `O=C(O)CCC(=O)N(C1CC1)C1c2cc(F)ccc2N(C(=O)c2ccc(OC(F)(F)F)cc2)C2CCC21` (single isomer, unassigned) [27B, 4-[cyclopropyl[cis, cis-6-fluoro-1,2,2a,3,8,8a-hexahydro-3-[4-(trifluoromethoxy)benzoyl]cyclobuta[b]quinolin-8-yl]amino]-4-oxobutanoic acid] had a Ki of 1 to 5 nM.
